Assay results published in PubChem BioAssay AID651820 (National Center for Advancing Translational Sciences (NCATS), 2012).
The whole screen tested about 340,000 compounds, of which about 12,000 (3.5%) were called active. This list was built around the results that the source calls inconclusive (neither active nor inactive); the mix of calls is not that of the screen. Calls follow the shape of the dose curve; as a rule, active = well fitted inhibition curve with a large enough effect; inconclusive = small, poorly fitted or top-dose-only effect, or another doubt; inactive = no such curve, though single readings can be large or run the other way. Potencies of inconclusive entries are left out as doubtful fits.

Assay: qHTS Assay for Inhibitors of Hepatitis C Virus (HCV)
Conditions: Huh7.5.1 HCVcc-Cre (HCVcc is cell-culture hepatitis C virus) infection, luciferase reporter, 44 h; activity change, negative = inhibition: at 41.8 µM (top of the series) unless noted
Method in brief: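 Seed cells (1,000/well) for 4 h; treat with compound and infect with HCVcc-Cre, moi about 0.5. Incubate 44 h, then detect luciferase activity.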
% is scaled to controls: 0 for no effect and ±100 for the full control effect; potency is read from the fitted curve at half-maximal effect; tags tell the direction and shape of the fitted curve.

Compound	activity change, negative = inhibition	Potency
Cc1cc(C)c(S(=O)(=O)N/N=C/c2ccc3c(c2)OCO3)c(C)c1	inactive: -3.35%	–
O=C(CCn1nc(-c2ccc(Cl)cc2)c2ccccc2c1=O)Nc1cccnc1	–	inconclusive [inhibitor, full curve, poor fit]
CC1(C)Oc2ccc3ccc(=O)oc3c2/C(=C/Nc2ccccc2)C1=O	–	active: 10 µM
COc1ccc(C(=O)NCC(O)COc2ccc(C(C)(C)C)cc2)cc1[N+](=O)[O-] (stereo not drawn)	–	inconclusive [inhibitor, full curve, poor fit]
Cc1ccccc1Nc1nc(N)nc(CSCc2c(C)noc2C)n1	inactive: -22.3%	–
O=C(N/C=C\c1ccccc1)NCc1ccc(Cl)cc1	–	inconclusive [inhibitor, single point]
NS(=O)(=O)c1ccc(CCNC(=O)CNC(=O)C2CCCCC2)cc1	inactive: 12.7%	–
CCOc1ccccc1N1CCN(C(=O)c2ccc3[nH]c(C)c(C)c3c2)CC1	–	inconclusive [inhibitor, partial curve]
CCOC(=O)C1=CN(Cc2cccc(-c3cccnc3)c2)S(=O)(=O)N(C)C1C (stereo not drawn)	–	inconclusive [inhibitor, single point]
Cn1cccc1C(=O)NC1CCCCC1	–	inconclusive [inhibitor, single point]
Cc1ccc(OCCNC(=O)c2ccc(NC(=O)CC3SC(N4CCCC4)=NC3=O)cc2)cc1 (stereo not drawn)	inactive: 0.752%	–
COc1ccc(C=C(C(=O)O)c2ccc(OC)cc2)cc1	inactive: 20.2%	–
Cc1cccc(CCNC(=O)C2CCN(S(=O)(=O)c3cccc4cccnc34)CC2)c1	–	inconclusive [inhibitor, partial curve]
COc1ccc(CCNC(=O)c2csc3c2CCCC3)cc1	–	inconclusive [inhibitor, partial curve]
Cc1ncc(CO)c(/C=N/NC(=S)Nc2ccc(C(C)C)cc2)c1O	–	active: 11.2 µM
CCCCN1C(=O)c2ccc(C(=O)Nc3c(N)n(CCCC)c(=O)n(C)c3=O)cc2C1=O	inactive: 1.42%	–
CCCCn1c(=O)[nH]c(=O)c2c1nc(-c1ccc(OCCC)c(OCC)c1)n2CCOC	–	active: 25.1 µM
Cc1ccc(C)c(OCC(O)CN2CCC(CN3C(=O)c4cccc5cccc(c45)C3=O)CC2)c1 (stereo not drawn)	–	inconclusive [inhibitor, full curve]
O=C(COc1cccc(Cl)c1)Nc1ccc2c(c1)CCC2	–	inconclusive [inhibitor, partial curve, poor fit]
Cc1ccc(/C=N/NC(=O)c2cccs2)o1	inactive: 22.5%	–
CN(C(=O)COc1cc(=O)n(C)c2ccccc12)c1ccc(Br)cc1	–	inactive
Cc1nn(-c2ccccc2)nc1C(=O)Nc1ccc2c(c1)OCCO2	–	inconclusive [inhibitor, single point]
CCOCCCNC(=O)C1(O)c2cc(Br)ccc2NC(=O)N1c1cccc(OC)c1 (stereo not drawn)	inactive: 7.96%	–
COc1cc(/C=N/N=C2/NC(=O)C(Cc3ccccc3)S2)ccc1O (stereo not drawn)	inactive: -1.22%	–
CC1CCc2sc3ncn4nc(C(=O)NCc5ccco5)nc4c3c2C1 (stereo not drawn)	–	inconclusive [inhibitor, partial curve]

Compound	activity change, negative = inhibition	Potency
O=C(NNC(=O)c1ccccc1Br)c1ccc(SCC2CCCO2)c([N+](=O)[O-])c1 (stereo not drawn)	–	inconclusive [inhibitor, single point]
O=C(Nc1ccc(S(=O)(=O)N2CCCCC2)cc1)c1ccccc1F	–	inconclusive [inhibitor, single point]
CC1CCN(C(=O)c2cccc(S(=O)(=O)N3CCN(c4ccccc4)CC3)c2)CC1	inactive: -1.19%	–
C=CCc1ccc(OCCCCN2CCC(C)CC2)c(OC)c1	–	inconclusive [inhibitor, single point]
CCCCN(CCCC)S(=O)(=O)c1ccc(C(=O)Nc2nnc(COC)o2)cc1	–	inconclusive [inhibitor, single point]
Cc1cc2ncn(CCCCOc3ccccc3)c2cc1C	–	inconclusive [inhibitor, single point]
Cc1c(CC(=O)O)c(=O)oc2cc(OCc3ccc(Br)cc3)ccc12	inactive: 14.3%	–
CC1CC(C)CN(S(=O)(=O)c2ccc(C(=O)NCc3ccco3)cc2)C1 (stereo not drawn)	–	inconclusive [inhibitor, single point]
C=CCn1c(SCN2C(=O)c3ccccc3C2=O)nc2ccc(Cl)cc2c1=O	inactive: -6.16%	–
CC(=O)c1ccccc1NC(=O)c1ccc2c(c1)NC(=O)C(C)S2 (stereo not drawn)	–	active: 11.2 µM
COc1cccc(C(=O)Nn2c(-c3cccs3)nc3ccccc3c2=O)c1OC	inactive: 1.06%	–
COc1cccc(-c2c(C(=O)N/N=C(\C)c3cccs3)nnn2-c2nonc2N)c1	–	inconclusive [inhibitor, single point]
COc1ccc(CC(C)N2CCN(Cc3ccccc3)CC2)cc1OC (stereo not drawn)	inactive: 1.35%	–
CC(C)(C)NC(=O)CC(c1ccccc1)c1ccccc1O (stereo not drawn)	inactive: -5.04%	–
Cc1ccc(S(=O)(=O)N(CC(=O)NCCSc2ccccn2)c2ccc(C)c(C)c2)cc1	–	inconclusive [inhibitor, partial curve]
Cc1ccc(-n2nc(C(=O)NN)c(C)c(C#N)c2=O)cc1Cl	–	inconclusive [inhibitor, partial curve]
O=C(CNC(=O)c1ccc(F)cc1)N/N=C/c1cc(Br)ccc1OCc1ccccc1	–	inconclusive [inhibitor, single point]
Cc1ccc(N)cc1N	inactive: -4.25%	–
Cc1ccc(NC(=O)CSCC(=O)Nc2cc(C(F)(F)F)ccc2N2CCOCC2)cc1	inactive: -11.6% [at 8.37 µM]	–
COc1ccc(-c2cc(-c3cc(C)ccc3O)[nH]n2)cc1	–	active: 3.55 µM
COc1cccc2cc(C(C)OC(=O)Nc3ccc(C)cc3)oc12 (stereo not drawn)	–	inconclusive [inhibitor, single point]
O=C(/C=C/c1ccccc1Cl)Nc1ccc2c(c1)C(=O)NC2=O	–	inconclusive [inhibitor, partial curve]
COc1ccc(N)c2c1C(=O)c1ccccc1C2=O	–	inconclusive [inhibitor, single point]
COc1ccc(C)cc1S(=O)(=O)N(CC(=O)Nc1cccc([N+](=O)[O-])c1)c1ccc(C)c(C)c1	inactive: 5.87%	–
O=C(Nc1nc(-c2ccccc2)cs1)c1ccccc1NS(=O)(=O)c1ccc(F)cc1	–	inconclusive [inhibitor, partial curve]

Compound	activity change, negative = inhibition	Potency
CCOC(=O)C1=C(CSc2nc(-c3ccncc3)ccc2C#N)OC(N)=C(C#N)C1c1ccc(OC)cc1 (stereo not drawn)	inactive: -26.7%	–
Cc1ccc(OCC(O)CN2CCN(CC(O)COC(C)C)CC2)c(C(C)(C)C)c1 (stereo not drawn)	–	inconclusive [inhibitor, partial curve]
CC(=O)c1c(C)oc2ccc(NS(=O)(=O)c3ccc(F)cc3C)cc12	–	inconclusive [inhibitor, single point]
O=S(=O)(c1ccc(F)cc1)N1CCC2(CC1)OCCN2S(=O)(=O)c1cccs1	–	inconclusive [inhibitor, partial curve, poor fit]
CCc1ccc2nc(N(CCCN(C)C)C(=O)c3ccc(S(=O)(=O)N4CCCc5ccccc54)cc3)sc2c1	–	inconclusive [inhibitor, partial curve]
Cc1cc([N+](=O)[O-])ccc1NC(=O)c1cccc(NC(=O)C(C)C)c1	–	active: 11.2 µM
CCOc1cc(/C=C\[N+](=O)[O-])ccc1OCC(=O)N1CCOCC1	–	inconclusive [inhibitor, single point]
CCc1ccc(-c2nc(CN3CCC(C(=O)N4CCN(c5ccccn5)CC4)CC3)c(C)o2)cc1	–	active: 11.2 µM
Cc1ccccc1C(=O)Nc1ccc(-c2nc3ccc(C(=O)c4ccccc4)cc3[nH]2)cc1	–	active: 11.2 µM
CN(C)c1ccc(NC(=O)c2sc(SCC(=O)Nc3nccs3)nc2N)cc1	–	inconclusive [inhibitor, single point]
CCCC(=O)Nc1ccc(N2CCCCC2)cc1	inactive: 5.68%	–
COc1ccc(C2(c3ccc(OC)cc3)NC(=O)N(CC(=O)NC3CCCC3)C2=O)cc1	inactive: 2.3%	–
COc1ccc(N=C2NC(=O)/C(=C/c3ccco3)S2)cc1	inactive: -23.1%	–
COC(=O)C1CCC(=O)N1C(c1ccc(OC)cc1)c1cc(OC)c(OC)c(OC)c1 (stereo not drawn)	–	inconclusive [inhibitor, partial curve, poor fit]
CC(=O)Oc1ccc2cc(-c3ccccc3)c(=O)oc2c1	–	inconclusive [inhibitor, partial curve, poor fit]
COc1ccc(-c2cc3cc(F)ccc3cn2)cc1	–	inconclusive [inhibitor, single point]
CCN(CC)S(=O)(=O)c1ccc2oc(C(=O)NCC3COc4ccccc4O3)c(C)c2c1 (stereo not drawn)	–	active: 10 µM
N#Cc1nc(COc2ccc(Br)cc2)oc1N1CCCCCC1	–	inconclusive [inhibitor, partial curve]
COc1cc(NS(=O)(=O)c2cc(C)ccc2OC)c(OC)cc1Cl	–	inconclusive [inhibitor, single point]
CCn1c2c(c3cc(Br)ccc31)CCC/C2=N\O	–	inconclusive [inhibitor, full curve]
O=C(Nc1cc(Br)ccc1O)C1CC(c2c(F)cccc2Cl)=NO1 (stereo not drawn)	inactive: -8.32%	–
CC(C)c1ccc(C2/C(=C(/O)c3ccc(F)cc3)C(=O)C(=O)N2CCCN2CCOCC2)cc1 (stereo not drawn)	inactive: 9.59%	–
CCn1c(=NC(=O)c2cccc(N3C(=O)CCC3=O)c2)sc2c(OC)ccc(OC)c21	–	inconclusive [inhibitor, single point]
